Results as given in the BET-seq Pho4 binding data (Le et al. 2018).
Some of the results follow. The energies were worked out here from pooled read counts, against the library average; single values are noisy.

Molecular target: T1, Pho4 (S. cerevisiae) (UniProt P07270)
T1 sequence: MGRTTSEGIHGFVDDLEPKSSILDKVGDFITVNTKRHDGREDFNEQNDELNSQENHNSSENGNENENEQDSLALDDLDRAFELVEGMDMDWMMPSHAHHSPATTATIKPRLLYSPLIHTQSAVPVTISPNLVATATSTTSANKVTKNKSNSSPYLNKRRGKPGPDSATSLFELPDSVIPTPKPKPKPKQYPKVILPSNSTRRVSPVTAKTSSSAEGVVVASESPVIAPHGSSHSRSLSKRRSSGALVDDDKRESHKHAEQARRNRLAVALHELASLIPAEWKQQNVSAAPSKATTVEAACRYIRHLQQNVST
Experiment: relative binding free energy (BET-seq); higher = weaker binding
Settings: reference: library average

Sequence	relative binding free energy
AATAGCACGTGATAGT	-0.05 kcal/mol
TTCTCCACGTGGGTTA	-0.03 kcal/mol
GTCAACACGTGTTTTT	0.13 kcal/mol
CTTTTCACGTGTTGCT	0.16 kcal/mol
TCCATCACGTGGGGGG	-0.13 kcal/mol
TATGTCACGTGCATAG	0.05 kcal/mol
TTATTCACGTGTTGTG	0.27 kcal/mol
GGTGGCACGTGACAGT	0.05 kcal/mol
CTTTGCACGTGATGTT	0.05 kcal/mol
TTTACCACGTGGAGTG	-0.1 kcal/mol
GGGAGCACGTGAGGCT	0.09 kcal/mol
TGTTACACGTGCATGT	0.1 kcal/mol
CAGGTCACGTGGTTAA	0.2 kcal/mol
TCGTTCACGTGTTCTG	0.49 kcal/mol
GCCGGCACGTGTGTTT	0.01 kcal/mol
TGGGTCACGTGCTAGT	-0.01 kcal/mol
CATTGCACGTGGGTAA	-0.06 kcal/mol
TGTTCCACGTGGCGTT	0.03 kcal/mol
TGGGGCACGTGTCATT	-0.22 kcal/mol
GAGGTCACGTGCGGTC	0.06 kcal/mol
AATGACACGTGTGTGC	0 kcal/mol
GTAGACACGTGGGGAC	-0.06 kcal/mol
GATATCACGTGTCGGG	0.2 kcal/mol
AATGACACGTGGTCGG	0.01 kcal/mol
TTTGACACGTGTGATT	0.11 kcal/mol

Sequence	relative binding free energy
AAATGCACGTGAGTAT	0.22 kcal/mol
AGGGACACGTGAAATG	0.17 kcal/mol
CGATACACGTGAAGGT	0.63 kcal/mol
GACTGCACGTGGGTTA	-0.16 kcal/mol
TGTTACACGTGGGACT	-0.04 kcal/mol
TGTTCCACGTGTGTTT	0.07 kcal/mol
TTAGGCACGTGCTCTG	-0.23 kcal/mol
TAGTCCACGTGATGTA	0.31 kcal/mol
GTGAACACGTGGATTT	0.01 kcal/mol
GGCATCACGTGAGGTG	0.22 kcal/mol
AATGGCACGTGGGATA	-0.06 kcal/mol
GGAGTCACGTGTCTTG	0.14 kcal/mol
TGGGCCACGTGGGTTA	-0.09 kcal/mol
CGAGGCACGTGTAGGT	-0.05 kcal/mol
GGGACCACGTGGCGGG	-0.03 kcal/mol
GTGGTCACGTGTAGCA	0.13 kcal/mol
GGGTCCACGTGATAAG	0.4 kcal/mol
GTAGACACGTGTTAGA	0.08 kcal/mol
ATTTACACGTGGGATG	0 kcal/mol
AAGAACACGTGATGGT	0.17 kcal/mol
TCTGTCACGTGGTGCT	0.1 kcal/mol
TTTACCACGTGAGTTG	0.18 kcal/mol
TGGCGCACGTGCGTGT	-0.12 kcal/mol
GCTGACACGTGTAGTG	0.04 kcal/mol
GAGTACACGTGGAGTA	0.07 kcal/mol

Sequence	relative binding free energy
ATAAACACGTGATGTT	0.09 kcal/mol
GATTGCACGTGAGGGG	0.37 kcal/mol
TAGTGCACGTGAGAGC	0.35 kcal/mol
CGGGGCACGTGTTCTG	-0.24 kcal/mol
AGTTCCACGTGGGGAG	-0.08 kcal/mol
CGTTTCACGTGATAGT	0.3 kcal/mol
AGAGTCACGTGGAATG	0.22 kcal/mol
CTCGGCACGTGGGGAA	-0.18 kcal/mol
TTCATCACGTGGTTGA	0.12 kcal/mol
AAGGGCACGTGTCGTG	-0.08 kcal/mol
GGGAACACGTGGATGA	0.18 kcal/mol
ATTTTCACGTGAGTGT	0.43 kcal/mol
GTTAGCACGTGGGAAT	-0.07 kcal/mol
GGGTTCACGTGAACGT	0.46 kcal/mol
GTTTTCACGTGCGTCG	0.21 kcal/mol
GGGCTCACGTGAGGTG	0.36 kcal/mol
TTATGCACGTGGGAGA	-0.19 kcal/mol
GGTAACACGTGATGTA	0.15 kcal/mol
ATTGGCACGTGCAATG	-0.23 kcal/mol
TGAGGCACGTGGAGGC	-0.08 kcal/mol
TGTTACACGTGTCCGT	0.13 kcal/mol
GCTGTCACGTGGGGCT	0.03 kcal/mol
GGTGACACGTGTGAGG	0.04 kcal/mol
